The values below come from patent US6403626B1, “Benzimidazole derivatives” (Synaptic Pharmaceutical Corporation, priority 1994, dated 2002).

Structures are written as SMILES.

A word on the EC50: it is the concentration at which the effect is half-maximal. The low end stands for higher potency in that assay, the high end for lower potency in that assay. In general, Ki refers to the equilibrium dissociation constant of an inhibitor or competing ligand from its target. Read a high Ki as weaker binding.

Assay [1] has as its target T1, α2A Human Adrenergic Receptor (Homo sapiens, UniProt P08913).
T1 sequence (P08913 1-465): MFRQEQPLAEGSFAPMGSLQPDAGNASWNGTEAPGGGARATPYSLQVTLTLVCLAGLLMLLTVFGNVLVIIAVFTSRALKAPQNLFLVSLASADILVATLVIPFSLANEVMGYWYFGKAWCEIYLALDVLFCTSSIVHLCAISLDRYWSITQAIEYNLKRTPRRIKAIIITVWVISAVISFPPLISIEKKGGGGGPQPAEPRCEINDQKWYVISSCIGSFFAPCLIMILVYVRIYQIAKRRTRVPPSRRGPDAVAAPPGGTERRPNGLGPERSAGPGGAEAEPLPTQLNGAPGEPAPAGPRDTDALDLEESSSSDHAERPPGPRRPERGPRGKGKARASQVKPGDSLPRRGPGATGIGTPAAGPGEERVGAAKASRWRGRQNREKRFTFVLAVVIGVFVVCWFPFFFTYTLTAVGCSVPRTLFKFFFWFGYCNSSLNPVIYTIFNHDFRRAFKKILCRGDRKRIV
Particulars: functional cAMP assay.

In assay [2] the target is T1, α2A Human Adrenergic Receptor. The assay is described as follows: cell-based.
Assay [3] shares this target. The assay is described as follows: Equilibrium competition binding, [3H] rauwolscine, membranes of transfected LM(tk-) cells.

In the case of `CC(C)Cn1cnc2ccc(NC3=NCCN3)c(Br)c21` [Example 24, 3-Isobutyl-4-bromo-5-(2-imidazolin-2-ylamino)Benzimidazole], the “I.A Alpha-2 A” value in assay [1] came to 1.00. The same compound gave a 50% effective concentration (EC50) in assay [2] of 45.7 nM. Also, in assay [3], affinity was put at a Ki of 3.31 nM.
Taken in the same sequence, the figures for `COc1ccc(Cn2cnc3c(Br)c(NC4=NCCN4)ccc32)cc1` [Example 36, 1-(4-Methoxybenzyl)-4-bromo-5-(2-imidazolin-2-ylamino)Benzimidazole] were 0.60, 5.5 nM and 9.55 nM.
The like results for `COc1cccc(Cn2cnc3c(Br)c(NC4=NCCN4)ccc32)c1` [Example 37, 1-(3-Methoxybenzyl)-4-bromo-5-(2-imidazolin-2-ylamino)Benzimidazole] were, in that order, 0.60, 20.4 nM and 6.61 nM.
For `OCCn1cnc2c(Br)c(NC3=NCCN3)ccc21` [Example 38, 1-(2-Hydroxyethyl)-4-bromo-5-(2-imidazolin-2-ylamino)Benzimidazole], the “I.A Alpha-2 A” value in assay [1] turned out to be 1.00. The same compound showed an EC50 in assay [2] of 35.5 nM. Further, the Ki in assay [3] was 38.9 nM.
Take `OCCn1cnc2ccc(NC3=NCCN3)c(Br)c21` [Example 39, 3-(2-Hydroxyethyl)-4-bromo-5-(2-imidazolin-2-ylamino)Benzimidazole]: the “I.A Alpha-2 A” value in assay [1] turned out to be 0.90. The compound also showed an EC50 in assay [2] of 24.5 nM. In assay [3], this compound showed a Ki of 43.7 nM.
As to `NCCn1cnc2c(Br)c(NC3=NCCN3)ccc21` [Example 40, 1-(2-Aminoethyl)-4-bromo-5-(2-imidazolin-2-ylamino)Benzimidazole], in assay [1], the “I.A Alpha-2 A” value is 0.80. In assay [2], this compound showed an EC50 of 724 nM. The same compound gave an inhibition constant (Ki) in assay [3] of 398 nM.
As to `Cc1nc2ccc(NC3=NCCN3)c(Br)c2[nH]1` [Example 42, 2-Methyl-4-bromo-5-(2-imidazolin-2-ylamino)Benzimidazole], the “I.A Alpha-2 A” value in assay [1] stood at 1.00. This compound also gave a concentration giving a half-maximal response (EC50) in assay [2] of 23.4 nM. This compound had a Ki in assay [3] of 10.2 nM.
As for `CCc1nc2ccc(NC3=NCCN3)c(Br)c2[nH]1` [Example 43, 2-Ethyl-4-bromo-5-(2-imidazolin-2-ylamino)Benzimidazole], the “I.A Alpha-2 A” value in assay [1] worked out at 1.00. Also, a half-maximal effect in assay [2] (EC50) was put at 22.9 nM. The Ki in assay [3] was 7.24 nM.
Take `CC(C)c1nc2ccc(NC3=NCCN3)c(Br)c2[nH]1` [Example 44, 2-Isopropyl-4-bromo-5-(2-imidazolin-2-ylamino)Benzimidazole]: the “I.A Alpha-2 A” value in assay [1] was 1.00. In assay [2], this compound had an EC50 of 3.98 nM. Moreover, the Ki in assay [3] was 2.95 nM.
Regarding `CC(C)(C)c1nc2ccc(NC3=NCCN3)c(Br)c2[nH]1` [Example 45, 2-tert-Butyl-4-bromo-5-(2-imidazolin-2-ylamino)Benzimidazole], the “I.A Alpha-2 A” value in assay [1] worked out at 1.00. In assay [2], this compound gave an EC50 of 52.5 nM. The compound also gave a Ki in assay [3] of 8.51 nM.
Take `FC(F)(F)c1nc2ccc(NC3=NCCN3)c(Br)c2[nH]1` [Example 46, 2-Trifluoromethyl-4-bromo-5-(2-imidazolin-2-ylamino)Benzimidazole]: in assay [1], the “I.A Alpha-2 A” value amounted to 1.00. This compound showed a concentration giving a half-maximal response (EC50) in assay [2] of 38.9 nM. In assay [3], this compound showed an inhibition constant (Ki) of 45.7 nM.
Take `Cc1cc2nc[nH]c2cc1NC1=NCCN1` [Example 49, 6-Methyl-5-(2-imidazolin-2-ylamino)Benzimidazole]: the “I.A Alpha-2 A” value in assay [1] amounted to 0.80. In assay [2], this compound had an EC50 of 91.2 nM. Moreover, the affinity in assay [3], expressed as Ki, was 19.5 nM.
For the compound `Brc1cc2nc[nH]c2c(Br)c1NC1=NCCN1` [Example 50, 4,6-Dibromo-5-(2-imidazolin-2-ylamino)Benzimidazole], in assay [1], the “I.A Alpha-2 A” value came out at 1.00. In assay [2], this compound gave a concentration giving a half-maximal response (EC50) of 15.8 nM. Also, in assay [3], the affinity, expressed as Ki, was 6.92 nM.
With `Brc1cc(NC2=NCCN2)cc2[nH]cnc12` [Example 51, 7-Bromo-5-(2-imidazolin-2-ylamino)Benzimidazole], the “I.A Alpha-2 A” value in assay [1] turned out to be 0.90. The compound also showed an EC50 in assay [2] of 97.7 nM. The compound also had a Ki in assay [3] of 26.3 nM.
The like results for `Cc1cc(NC2=NCCN2)cc2[nH]cnc12` [Example 52, 7-Methyl-5-(2-imidazolin-2-ylamino)Benzimidazole] were, in that order, 0.90, 81.3 nM and 24.5 nM.
With `Clc1cc(NC2=NCCN2)cc2[nH]cnc12` [Example 53, 7-Chloro-5-(2-imidazolin-2-ylamino)Benzimidazole], the “I.A Alpha-2 A” value in assay [1] stood at 1.00. The concentration for a half-maximal effect (EC50) in assay [2] is 57.5 nM. For the same compound, affinity in assay [3] was put at a Ki of 14.8 nM.
The like results for `Ic1cc(NC2=NCCN2)cc2[nH]cnc12` [Example 54, 7-Iodo-5-(2-imidazolin-2-ylamino)Benzimidazole] were, in that order, 0.70, 1260 nM and 49 nM.
Turning to `CCc1cc(NC2=NCCN2)cc2[nH]cnc12` [Example 55, 7-Ethyl-5-(2-imidazolin-2-ylamino)Benzimidazole], the “I.A Alpha-2 A” value in assay [1] is 0.60. Further, the midpoint of the response in assay [2], the EC50, lay at 51.3 nM. In assay [3], this compound showed an inhibition constant Ki of 43.7 nM.
The like results for `CCCCc1cc(NC2=NCCN2)cc2[nH]cnc12` [Example 56, 7-Butyl-5-(2-imidazolin-2-ylamino)Benzimidazole] were, in that order, 0.70, 501 nM and 21.9 nM.
With `Brc1cc(NC2=NCCN2)c(Br)c2[nH]cnc12` [Example 58, 4,7-Dibromo-5-(2-imidazolin-2-ylamino)Benzimidazole], the “I.A Alpha-2 A” value in assay [1] was 1.00. In assay [2], this compound showed an EC50 of 2.45 nM. For the same compound, the inhibition constant Ki in assay [3] is 1.29 nM.
For `Cc1cc(NC2=NCCN2)c(Br)c2[nH]cnc12` [Example 59, 4-Bromo-7-methyl-5-(2-imidazolin-2-ylamino)Benzimidazole], the “I.A Alpha-2 A” value in assay [1] turned out to be 1.00. In assay [2], this compound had a concentration for a half-maximal effect (EC50) of 0.832 nM. Also, the inhibitory constant (Ki) in assay [3] was 0.977 nM.
Taken in the same sequence, the figures for `Clc1cc(NC2=NCCN2)c(Br)c2[nH]cnc12` [Example 60, 4-Bromo-7-chloro-5-(2-imidazolin-2-ylamino)Benzimidazole] were 1, 0.589 nM and 0.891 nM.
